Reference: the supplement of paper PMC12217912
The list shows a part of the results. The full chains were built here from the parent and the listed change. Inactive controls read about 0.05.

B1: TEV protease; numbered along this chain (parent)
chain: MGESLFKGPRDYNPISSSICHLTNESDGHTTSLYGIGFGPFIITNKHLFRRNNGTLVVQSLHGVFKVKDTTTLQQHLVDGRDMIIIRMPKDFPPFPQKLKFREPQREERICLVTTNFQTKSMSSMVSDTSCTFPSGDGIFWKHWIQTKDGQCGSPLVSTRDGFIVGIHSASNFTNTNNYFTSVPKNFMELLTNQEAQQWVSGWRLNADSVLWGGHKVFMVKPEEPFQPVKEATQL

Variants of: B1
Experiment: raw area under fraction-flipped curve 0-4 h after induction (AUC4h, not background-subtracted), DNA-recorder readout of cleavage of the substrate (dimensionless); higher = more cleavage of the substrate by the protease variant
Conditions: temperature: 34 °C; time window: 0-4 h after rhamnose induction
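Further: Bxb1 expression induced with 0.2% (w/v) L-rhamnose at OD600 near 0.5, cultures sampled hourly, flipped fraction per protease–substrate barcode pair counted by paired-end Illumina sequencing.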

Variant	area with substrate EELYFQS	area with substrate EFLYFQS	area with substrate EGLYFQS	area with substrate ELLYFQS	area with substrate EMLYFQS	area with substrate EPLYFQS	area with substrate EQLYFQS	area with substrate ESLYFQS	area with substrate ETLYFQS	area with substrate EVLYFQS	area with substrate EYLYFQS	area with substrate EKLYFQS	area with substrate EILYFQS	area with substrate EHLYFQS	area with substrate ERLYFQS	area with substrate EWLYFQS
Q194L	0.103	0.0718	0.0943	0.0854	0.0878	0.13	0.114	0.0696	0.101	0.0958	0.0802	–	–	–	–	–
F101K	0.0559	–	0.0599	–	–	–	–	–	–	0.0475	0.0485	0.067	–	–	–	–
S135P	0.0858	–	0.091	0.0779	0.0774	–	0.0732	0.0775	–	0.0764	0.0637	0.0496	0.075	–	–	–
K142P	0.0622	0.0602	0.0694	0.0698	0.0845	–	0.0818	0.0746	–	–	0.0847	0.0747	0.0741	0.0697	0.0596	0.0608
T233R	0.111	0.0884	–	0.0824	0.121	0.113	0.118	0.118	–	0.0817	0.105	–	0.127	–	–	0.144
S60P	0.0582	–	0.0548	0.0454	0.0715	0.0657	–	–	–	0.0489	0.0584	0.0603	0.056	0.0575	–	0.0533
I86D	0.027	0.0578	0.0405	–	–	–	0.0583	–	–	0.0491	–	–	0.0389	–	0.042	–
H168C	–	0.0493	–	0.0537	–	–	–	–	–	0.058	0.0581	0.0527	–	–	–	–
G138V	0.0659	–	0.0741	–	0.113	–	0.0864	0.0858	–	–	–	0.133	0.0997	–	0.0738	–
Q198W	0.117	0.0577	0.0571	–	0.0839	–	0.0875	0.0943	–	0.0595	0.0515	0.0663	0.035	0.0584	–	0.0643
